Data published in PubChem BioAssay AID504339 (National Center for Advancing Translational Sciences (NCATS), 2011).
Among all 390,000 compounds or so, about 17,000 (4.4%) were called active. This list was built around the results that the source calls inconclusive (neither active nor inactive); the mix of calls is not that of the screen. Calls come from the whole dose curve; as a rule, active = well fitted inhibition curve with a large enough effect; inconclusive = small, poorly fitted or top-dose-only effect; inactive = no such curve, though single readings can be large or run the other way. Potencies beside an inconclusive call are fits to weak or partial responses and may not hold up.

Target: Lysine-specific demethylase 4A (Homo sapiens) (UniProt O75164)
UniProt O75164, sequence (O75164 whole entry, looked up, the tested form may be a part): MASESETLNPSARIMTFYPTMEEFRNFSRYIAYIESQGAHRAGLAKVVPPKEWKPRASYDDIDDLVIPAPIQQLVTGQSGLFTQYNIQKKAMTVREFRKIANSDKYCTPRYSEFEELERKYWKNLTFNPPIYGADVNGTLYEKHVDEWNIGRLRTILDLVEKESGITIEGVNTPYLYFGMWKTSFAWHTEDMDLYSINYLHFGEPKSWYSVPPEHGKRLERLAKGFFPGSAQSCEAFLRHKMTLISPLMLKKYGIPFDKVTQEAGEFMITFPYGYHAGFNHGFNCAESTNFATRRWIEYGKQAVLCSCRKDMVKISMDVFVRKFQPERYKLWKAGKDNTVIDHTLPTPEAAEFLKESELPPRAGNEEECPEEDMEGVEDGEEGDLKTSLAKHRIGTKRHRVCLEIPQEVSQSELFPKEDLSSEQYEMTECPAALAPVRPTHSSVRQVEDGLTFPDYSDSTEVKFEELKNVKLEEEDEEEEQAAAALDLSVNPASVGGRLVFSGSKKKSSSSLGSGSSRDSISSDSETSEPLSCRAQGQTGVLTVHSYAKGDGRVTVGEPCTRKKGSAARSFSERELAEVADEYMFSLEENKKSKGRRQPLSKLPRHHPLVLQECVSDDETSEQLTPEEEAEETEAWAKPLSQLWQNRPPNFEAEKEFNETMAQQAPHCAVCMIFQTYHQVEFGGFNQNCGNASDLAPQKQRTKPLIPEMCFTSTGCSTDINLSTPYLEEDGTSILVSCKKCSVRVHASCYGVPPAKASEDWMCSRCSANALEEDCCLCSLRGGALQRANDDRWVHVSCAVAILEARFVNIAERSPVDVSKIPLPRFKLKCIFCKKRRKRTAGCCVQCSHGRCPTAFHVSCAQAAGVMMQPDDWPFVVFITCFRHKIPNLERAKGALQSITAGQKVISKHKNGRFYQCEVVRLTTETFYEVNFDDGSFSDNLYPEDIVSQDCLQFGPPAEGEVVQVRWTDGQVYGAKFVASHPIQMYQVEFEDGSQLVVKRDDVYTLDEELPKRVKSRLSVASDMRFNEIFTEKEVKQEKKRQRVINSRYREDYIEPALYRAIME
Assay: qHTS Assay for Inhibitors of JMJD2A-Tudor Domain; note: nearly all actives have a fitted effect of over 50% in size
Conditions: AlphaScreen JMJD2A-Tudor / H3K4me3 peptide binding; series mostly up to 114 µM
Potency is the fitted concentration of half-maximal effect; tags give direction and shape of the fitted curve.

SMILES	Potency
O=C(CCNC(=O)c1ccco1)NCc1ccccc1	inactive
COc1ccc2cc(C(=O)C3CCCN(Cc4cnc(N5CCOCC5)s4)C3)ccc2c1 (centres undefined)	inconclusive: 50.1 µM [inhibitor, partial curve]
CC(C)(C)c1ccc2c(c1)OC(C(=O)N/N=C\c1ccc[nH]1)CO2 (centres undefined)	inconclusive: 50.1 µM [inhibitor, partial curve]
Cc1cc(/C=N/NC(=O)c2cccc(N(C)C)c2)c(C)n1-c1cc(C(=O)O)cc(C(=O)O)c1	active: 39.8 µM
O=C1c2ccc(-c3ccc(F)cc3OCc3ccccc3)cc2S(=O)(=O)c2cccc(C(=O)N3CCN(c4ncc(Br)cn4)CC3)c21	inconclusive: 6.31 µM [inhibitor, partial curve]
CCc1ccc(N(C(=O)CNC(=O)c2ccco2)C(C(=O)NC2CCCC2)c2cccnc2)cc1 (centres undefined)	active: 50.1 µM
COc1ccc(C)cc1Nc1n[n+](-c2ccccc2)c(-c2ccc(NC(C)=O)cc2)s1	inactive
Cc1ccc(CNC(=O)CCS(=O)(=O)c2ccc3c(c2)NC(=O)CO3)cc1	inconclusive: 28.2 µM [inhibitor, partial curve]
Cc1ccccc1CNC(=O)CCC(=O)N1CC2CCCN2c2ccccc21 (centres undefined)	inconclusive: 79.4 µM [inhibitor, partial curve]
O=C(NNC(=S)NC(=O)c1cccnc1)c1ccc(F)cc1	inactive
Cc1ccc(CN=c2c([N+](=O)[O-])nn(-c3ccc(Cl)cc3)n2O)cc1	inconclusive: 35.5 µM [inhibitor, partial curve]
O=C(CSc1nc(Cc2ccccc2)nc2ccccc12)Nc1nc2c(s1)CCCC2	inconclusive: 56.2 µM [inhibitor, partial curve]
C/C(=N\NC(=O)c1cccc(S(=O)(=O)N2CCOCC2)c1)c1ccco1	inconclusive: 35.5 µM [inhibitor, partial curve]
O=C1CCCC2=C1C(c1ccncc1)n1c(nc3ccccc31)N2 (centres undefined)	active: 56.2 µM
Cc1cccc(N2CCN(C(=O)/C=C/c3ccco3)CC2)c1C	inconclusive: 44.7 µM [inhibitor, single point]
COC(=O)CCC(=O)Nc1sc(C)c(C)c1C(N)=O	inconclusive: 56.2 µM [inhibitor, partial curve]
COc1ccc(Cl)cc1C(=O)N1CCN(Cc2ccc3c(c2)OCO3)CC1	inactive
COc1ccc(O)c(-c2c(-c3ccc(Cl)cc3)n[nH]c2C)c1	inconclusive: 70.8 µM [inhibitor, partial curve]
COc1cccc(CN2CCNC(=O)C2CC(=O)NCCn2ccc3ccccc32)c1OC (centres undefined)	inconclusive: 20 µM [inhibitor, full curve]
